# Laboratory results: PubChem BioAssay AID1347165 (National Center for Advancing Translational Sciences (NCATS), 2019)
# Hit rate of the full screen: of about 220,000 compounds, about 5,700 (2.6%) were called active. This list was built around the results that the source calls inconclusive (neither active nor inactive); the mix of calls is not that of the screen. Calls follow the shape of the dose curve; as a rule, active = well fitted inhibition curve with a large enough effect; inconclusive = small, poorly fitted or top-dose-only effect; inactive = no such curve, though single readings can be large or run the other way. Potencies of inconclusive entries are doubtful fits and often do not repeat.
# Target: Lysine-specific demethylase 5B (Homo sapiens) (UniProt Q9UGL1)
# Sequence of UniProt Q9UGL1 (Q9UGL1 whole entry, looked up): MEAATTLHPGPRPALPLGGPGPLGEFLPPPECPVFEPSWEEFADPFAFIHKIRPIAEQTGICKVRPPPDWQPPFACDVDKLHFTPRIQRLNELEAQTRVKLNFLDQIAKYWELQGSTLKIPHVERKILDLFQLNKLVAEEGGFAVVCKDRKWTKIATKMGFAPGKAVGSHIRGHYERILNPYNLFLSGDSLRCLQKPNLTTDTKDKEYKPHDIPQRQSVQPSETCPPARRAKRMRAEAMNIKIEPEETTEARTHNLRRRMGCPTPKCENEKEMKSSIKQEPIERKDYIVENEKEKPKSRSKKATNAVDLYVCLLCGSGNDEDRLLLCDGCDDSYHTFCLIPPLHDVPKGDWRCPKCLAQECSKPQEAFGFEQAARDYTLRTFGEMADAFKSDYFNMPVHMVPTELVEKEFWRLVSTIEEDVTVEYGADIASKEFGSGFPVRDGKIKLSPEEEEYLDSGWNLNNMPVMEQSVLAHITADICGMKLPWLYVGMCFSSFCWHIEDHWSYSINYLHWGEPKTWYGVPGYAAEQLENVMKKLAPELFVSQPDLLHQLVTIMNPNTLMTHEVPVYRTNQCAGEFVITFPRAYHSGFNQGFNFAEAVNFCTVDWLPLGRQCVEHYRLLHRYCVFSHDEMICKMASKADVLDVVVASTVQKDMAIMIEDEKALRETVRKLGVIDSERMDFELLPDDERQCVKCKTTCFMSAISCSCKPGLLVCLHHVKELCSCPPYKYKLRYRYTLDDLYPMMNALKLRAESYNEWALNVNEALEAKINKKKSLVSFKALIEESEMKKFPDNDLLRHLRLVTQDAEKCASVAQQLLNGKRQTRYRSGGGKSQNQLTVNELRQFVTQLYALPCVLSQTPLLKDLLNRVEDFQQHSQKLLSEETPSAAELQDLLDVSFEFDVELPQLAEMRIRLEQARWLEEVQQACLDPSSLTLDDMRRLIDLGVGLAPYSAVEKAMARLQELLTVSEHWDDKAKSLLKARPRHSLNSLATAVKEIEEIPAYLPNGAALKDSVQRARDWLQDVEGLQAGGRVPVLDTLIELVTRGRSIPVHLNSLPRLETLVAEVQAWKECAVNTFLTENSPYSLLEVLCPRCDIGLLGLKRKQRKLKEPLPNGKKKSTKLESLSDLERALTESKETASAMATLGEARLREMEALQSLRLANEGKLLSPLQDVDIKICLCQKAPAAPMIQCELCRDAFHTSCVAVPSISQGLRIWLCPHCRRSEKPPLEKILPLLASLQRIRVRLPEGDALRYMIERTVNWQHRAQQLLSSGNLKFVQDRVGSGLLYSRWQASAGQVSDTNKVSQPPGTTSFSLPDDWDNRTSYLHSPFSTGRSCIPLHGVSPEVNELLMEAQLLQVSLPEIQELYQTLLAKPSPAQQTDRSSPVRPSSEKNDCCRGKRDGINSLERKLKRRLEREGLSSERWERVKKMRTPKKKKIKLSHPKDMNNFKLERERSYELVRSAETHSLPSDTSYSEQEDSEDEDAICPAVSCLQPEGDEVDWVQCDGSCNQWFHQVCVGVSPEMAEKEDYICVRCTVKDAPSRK
# Assay: Primary screen for KDM5B Histone Demethylases FDH-coupled qHTS; also: nearly all actives have a fitted effect of over 70% in size; as to activity change, negative = inhibition: 0% is about no effect
# Details: FDH-coupled NADH fluorescence (FDH is formaldehyde dehydrogenase); activity change, negative = inhibition: at 57.7 µM (top of the series) unless noted
# Procedure, shortened: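 Compound dilutions met 200 nM (final) KDM5BΔAP for 10 min at room temperature before substrate addition. The substrate mix held 12.5 µM H3K4me3 with cofactors 25 µM α-ketoglutarate and 50 µM Fe²⁺. NADH signal gain over 30 min defined activity.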
# Potency is read from the fitted curve at half-maximal effect; tags tell the direction and shape of the fitted curve.
Compound,Potency,"activity change, negative = inhibition"
CCOc1nc(NC(=O)NS(=O)(=O)Oc2ccc(Cl)cc2)nc(-c2ccccc2)n1,"inconclusive: 25.1 µM [inhibitor, single point]",–
O=C(Nc1cc(F)ccc1F)N1CCC2(CC1)Oc1ccccc1C(=O)N2Cc1ccccc1F,–,inactive: -2.84%
Cn1c(SCC(=O)Nc2ccc(F)cc2)nc2c([nH]c3ccccc32)c1=O,–,inconclusive: -38% [inhibitor]
Cc1ccc(CN2C[C@@H](NC(=O)c3cccnc3)C[C@H]2CO)o1,"inconclusive: 39.8 µM [inhibitor, partial curve, poor fit]",–
CC1=C(C(=O)OC2CCCCC2)C(c2ccc(O)cc2)C2=C(CC(C)(C)CC2=O)N1 (stereo not given),"inconclusive: 12.6 µM [inhibitor, partial curve, poor fit]",–
CCOc1ccc2oc(C(=O)Nc3ccc4c(c3)OCO4)c(C)c2c1,"inconclusive: 39.8 µM [inhibitor, single point]",–
N#Cc1cccnc1Oc1ccccc1,"inconclusive: 25.1 µM [inhibitor, single point]",–
COc1cccc(-c2cc(C(=O)NCc3ccccc3)[nH]n2)c1,"inconclusive: 3.55 µM [inhibitor, partial curve, poor fit]",–
CC(=O)Nc1ccc(-n2cc3c(c2-c2ccc(C)cc2)c(=O)n(C)c(=O)n3C)cc1,"inconclusive: 22.4 µM [inhibitor, partial curve, poor fit]",–
O=C(c1ccc(-c2ccco2)cc1)N1CCOC(c2ccccc2)C1 (stereo not given),active: 28.2 µM,–
CCCCN(CC)CCCn1cnc2c([nH]c3ccc(Cl)cc32)c1=O,"inconclusive: 2 µM [inhibitor, full curve, poor fit]",–
CCOCCOC1CCN(C(=O)NCc2ccc(OC)cc2)CC1,–,inactive: -13%
CN(CC1CCN(CCc2ccc(Cl)cc2)CC1)C(=O)c1ccccc1C#N,"inconclusive: 7.08 µM [inhibitor, partial curve]",–
CCC(=O)Nc1ccccc1-c1nc2ccccc2n(C(CC)C(=O)Nc2cccc(C(C)=O)c2)c1=O (stereo not given),"inconclusive: 25.1 µM [inhibitor, single point]",–
CN(C)C(=O)c1ccc2c(c1)NC(C)(CCCCc1ccccc1)CO2 (stereo not given),–,inactive: -19.4% [at 86.2 µM]
COc1ccc(NC(=O)Cn2ccn3nc4c(c3c2=O)CCCCC4)cc1,"inconclusive: 31.6 µM [inhibitor, single point]",–
CC(C)(C)C1CCc2nc(NC(=O)COc3ccc(F)cc3)sc2C1 (stereo not given),"inconclusive: 31.6 µM [inhibitor, single point]",–
COc1ccc(-c2noc([C@@H]3CCCN3C(=O)CCCc3ccccc3)n2)cc1,"inconclusive: 12.6 µM [inhibitor, partial curve, poor fit]",–
Cc1ccc(C)c(S(=O)(=O)c2nnn3c2nc(N2CCCC2)c2sccc23)c1,"inconclusive: 7.94 µM [inhibitor, partial curve, poor fit]",–
Cc1c(/C(O)=C2/C(=O)C(=O)N(CCN3CCOCC3)C2c2ccco2)cnn1-c1ccccc1 (stereo not given),"inconclusive: 39.8 µM [inhibitor, single point]",–
O=C1NCCCCCCN(Cc2ccncc2)[C@@H]2CN(C(=O)Nc3ccccc3F)CC[C@H]12,"inconclusive: 22.4 µM [inhibitor, partial curve, poor fit]",–
Cc1ccccc1CC(=O)N1CCC2(CC1)NC(=O)N(c1ccccc1)N2,"inconclusive: 14.1 µM [inhibitor, partial curve]",–

Compound,Potency,"activity change, negative = inhibition"
COc1ccc(Nc2oc(-c3ccc(COc4ccc(OC)cc4)o3)nc2C#N)cc1,"inconclusive: 17.8 µM [inhibitor, partial curve, poor fit]",–
CCN(Cc1ccccc1)C(=O)c1cc2cc(OC)ccc2oc1=O,"inconclusive: 22.4 µM [inhibitor, partial curve, poor fit]",–
COC(=O)C1=C(C)N=C2SC=C(CC(=O)N3CCC(C)CC3)N2C1c1ccccc1Cl (stereo not given),"inconclusive: 25.1 µM [inhibitor, single point]",–
CCc1ccc(C(=O)C(C)Oc2ccc3ccc(=O)oc3c2)cc1 (stereo not given),"inconclusive: 31.6 µM [inhibitor, partial curve, poor fit]",–
COc1ccc2[nH]cc(CCNC(=O)Nc3ccc(F)cc3)c2c1,–,inconclusive: -43% [inhibitor]
Cc1cc(C)c2c(=O)n(CC(=O)Nc3ccc(Br)c(C)c3)sc2n1,"inconclusive: 17.8 µM [inhibitor, partial curve, poor fit]",–
Cn1cc(CC(=O)N2CCCc3ncc(C(=O)NCCN4CCCC4)cc32)c2ccccc21,"inconclusive: 11.2 µM [inhibitor, partial curve]",–
O=C(c1ccc(CSc2nc3ccncc3n2Cc2ccccc2F)cc1)N1CCCCCC1,"inconclusive: 11.2 µM [inhibitor, partial curve, poor fit]",–
Cc1oc2cc3oc(=O)c(CCC(=O)N[C@H](C(=O)O)C(C)C)c(C)c3cc2c1C,"inconclusive: 14.1 µM [inhibitor, partial curve, poor fit]",–
CN1CCC(Oc2ccc(C(=O)NCCc3ccncc3)cn2)CC1,–,inactive: -17.6%
CC(C)(C)c1ccc(C(=O)N[C@H]2C[C@@H]3CC[C@H]2C3)cc1,–,inactive: 5.08%
CCOc1cccc(CNc2ncncc2-c2nc(-c3ccccc3)no2)c1,"inconclusive: 31.6 µM [inhibitor, partial curve, poor fit]",–
Fc1ccc(Nc2ncc(-c3cccnc3)c3c2OCC3)cc1,"inconclusive: 35.5 µM [inhibitor, single point]",–
CC(C)CCNC(=O)N1CCN(S(=O)(=O)c2ccc3c(ccn3C)c2)CC1,"inconclusive: 31.6 µM [inhibitor, single point]",–
O=C(CCc1nc2ccccc2[nH]1)N1C[C@@H](CO)[C@H](c2ccncc2)C1,–,inactive: 31.6%
CNC(=O)c1nn(CC(=O)N(C)C2CCCCC2)c(=O)c2ccccc12,–,inactive: 17.3%
COc1ccc(C(=O)OCc2ccc(Cl)c(Cl)c2)c(OC)c1OC,–,inactive: 3.96%
Oc1ccc(-c2nc(-c3ccc(Br)s3)cs2)cc1,"inconclusive: 31.6 µM [inhibitor, single point]",–
CC(C)CCN1C(=O)CC[C@]2(C(=O)NC3CCCC3)CCCC[C@@H]12,–,inactive: -14.1%
COCc1ccc2c(c1)c(OC(C)(C)C(=O)NCc1ccncc1)nn2CCC(C)C,"inconclusive: 39.8 µM [inhibitor, partial curve, poor fit]",–
Cc1nc(CNC(=O)CCN2Cc3ccccc3OC(c3ccccc3F)C2)cs1 (stereo not given),–,inactive: 6.15%
N#Cc1nc(-c2ccc(F)cc2)oc1NCCCN1CCOCC1,"inconclusive: 25.1 µM [inhibitor, partial curve, poor fit]",–

Compound,Potency,"activity change, negative = inhibition"
O=C(CNCCc1ccccc1)Nc1ccc(C(=O)N2CCCCC2)cc1,"inconclusive: 3.55 µM [inhibitor, full curve, poor fit]",–
COc1ccc(/C=C/C(=O)OCn2c(SC)nnc(C)c2=O)cc1OC,"inconclusive: 28.2 µM [inhibitor, partial curve, poor fit]",–
N#CC1=C(N)Oc2c(c(=O)[nH]c3ccccc23)C1c1cccc(Cl)c1 (stereo not given),"inconclusive: 20 µM [inhibitor, partial curve, poor fit]",–
O=C(c1ccccc1)N(Cc1cccnc1)Cc1cc2ccccc2[nH]c1=O,"inconclusive: 39.8 µM [inhibitor, single point]",–
O=C(Nc1cccc(-c2nn3cnnc3s2)c1)c1ccccc1,–,inactive: -8.9%
O=C(NC1CCCN(c2cc(-c3ccccc3)[nH]n2)C1)c1ccc2[nH]ccc2c1 (stereo not given),"inconclusive: 17.8 µM [inhibitor, single point]",–
CC(=O)N1CCN(C(=O)CCC2CCN(c3cc(NC4CC4)ncn3)CC2)CC1,–,inactive: 17.6%
CCOCCn1c(SCc2ccc(Cl)cc2)nc2c1c(=O)[nH]c(=O)n2C,–,inactive: 16.2%
Cc1ccc(/C=C/C(=O)c2ccc(O)c(CCCl)c2)c(C)c1,–,inactive: -29.8%
Cc1nc(N)nc(C)c1CC(=O)N1CC2(CCNCC2)CC1C(=O)O (stereo not given),"inconclusive: 8.91 µM [inhibitor, partial curve, poor fit]",–
COc1ccc2cc(-c3cn4c(n3)sc3cc(F)ccc34)c(=O)oc2c1,"inconclusive: 3.98 µM [inhibitor, full curve, poor fit]",–
O=C1CC(c2ccccc2)N(Cc2ccncc2)CCCN(C(=O)CCCc2ccccc2)CCN1 (stereo not given),–,inactive: -17.8%
CCC1=C(C(=O)OC)C(c2ccccc2C)N2C(CC(=O)NCC3CC3)=CSC2=N1 (stereo not given),active: 31.6 µM,–
Nc1cccc(C#Cc2ccccc2)c1,"inconclusive: 39.8 µM [inhibitor, single point]",–
C#CCNC(=O)c1nc(-c2c(C)cccc2C)c2ccccn12,active: 39.8 µM,–
Cc1cc(C)c2c(C(=O)N(C)Cc3nc(C)no3)cc(C)nc2c1,"inconclusive: 28.2 µM [inhibitor, partial curve, poor fit]",–
Cc1nc2cc(NC(C)C(=O)Nc3ccccc3C(F)(F)F)ccc2o1 (stereo not given),"inconclusive: 39.8 µM [inhibitor, single point]",–
CCOc1ccc2nc(N3CCCC(C(=O)NCc4ccc(OC)cc4)C3)sc2c1 (stereo not given),–,inactive: 2.46%
CSc1ncc(C(=O)Nc2ccc(Br)cn2)c(C)n1,"inconclusive: 20 µM [inhibitor, single point]",–
O=C(c1nc(-c2cccc(C(F)(F)F)c2)c2cnccn12)N1CCN(c2ncccn2)CC1,active: 28.2 µM,–
CCOc1ccc(C2Cn3nnc(-c4nc(-c5ccccc5C)no4)c3CO2)cc1 (stereo not given),"inconclusive: 22.4 µM [inhibitor, partial curve]",–
